Our source for the self-cleavage values is the RNAGym collection of RNA variant scans (doi:10.7554/elife.90254).

Sequences and labels used below:
B1: LINE1-mini (parent)
chain: GGCAGAGCUCAACACAGCGUGGCAAAGUGGCUGUGGCUAGACUGCC

The source gives no read counts; variants with many changes may rest on few reads.

The variants in this series derive from B1. Nature of the series: self-cleavage, relative activity (ratio to wild type); higher = more cleavage; in vitro, sequencing; the parent is a self-cleaving ribozyme.
For the variant GGGAGAGCUCAACACGGCGUGGCACAGUGGCUGUGGUUAGAUGGCC [C3G A16G A25C C37U C42U U43G], the self-cleavage came to 0.01.
The result for GGCAGAGCUCAACACAGAGUUGCAAAGUGGCCGUGGCUAGACUGGC [C18A G21U U32C C45G] reads 0.02; that for GGUAGAGCUCAACACAGCGUGGCAGAGUGGCUGUGGAUAGACUGCC [C3U A25G C37A], 0.07; that for GGAAGAGCUCAACACAGCGUGGCAAAGAGGUUGGGGCUAGACUGCC [C3A U28A C31U U34G], 0.01.
The result for GGCAGAGCCCAACGCAGCGUGGCAAAGUGGCUGUGGCUAGAAUGCU [U9C A14G C42A C46U] reads 0.01.
The result for GGUAGAUCUCAACACAGCGUUGCAAAGUGGCUGUGGCUAGACUGCC [C3U G7U G21U] reads 0.24; that for GGCCGAGCUCAACACAGCGGGUCAAAGUGGCUGUGGGUAGACCGCC [A4C U20G G22U C37G U43C], 0.01.
In the case of GGCAGAACUCUACACAGGUUGGCAAAGUGGCUGUGACUAGACUGCC [G7A A11U C18G G19U G36A], the self-cleavage amounted to 0.01.
For the variant GGCAGAGCUCAACACAGCGUGGCAAGGUGGCUGUGGUAAGCCUGCC [A26G C37U U38A A41C], the self-cleavage came out at 0.02.
The result for GGCAUAGCUCAACACAGCGUUGCAAAGUGGCUGUGGCUAUACUUCC [G5U G21U G40U G44U] reads 0; that for GCCAGAGCUAAACACAGCGGGGCAAAGUAGCUGUGGCUAGACUGCC [G2C C10A U20G G29A], 0.03; that for GGCAGAGCACGCCACAGCGUGGCAAAGAGGCUGUGGCGAGACUGCC [U9A A11G A12C U28A U38G], 0.02.
As to GGCAUAGAUCAACACAGCGUGGCAAAGUGGCUGUGGCAAGACUGCC [G5U C8A U38A], the self-cleavage was found to be 0.18.
Take GGCAGAGCUCAACACAGCGUGGCGAUGUGGCUGUGGCUACUCAGCC [A24G A26U G40C A41U U43A]: the self-cleavage came to 0.08.
Take GGCAGACCUCAACACAGCGGGGCAAAGUGGCUGUGGCCAGACUGCC [G7C U20G U38C]: the self-cleavage was 0.07.
The result for GACAGAGCUCAACACAGCGUGGCAAAGUGGCUGAGGCUAGACUCCC [G2A U34A G44C] reads 0.02; that for GGCAGAGCUGAACACAGCGUGGCACAGCGGGUGUGGCUAGACUGCC [C10G A25C U28C C31G], 0.05; that for GGCAGAGCUCAACAAAGCGGGGCAAAGCGGCUGUGGCUAGACUGCC [C15A U20G U28C], 0.02.
The result for GGCUGAGCUCAACACAGCGUCGCAAAGUGGCUCUGGCUAGACUGCC [A4U G21C G33C] reads 0.02; that for GGCAGAGCUCCACACAGCGUGGCAAUGUGUUUGUGGCUAGACUGCC [A11C A26U G30U C31U], 0.02.
The result for GGCAGAGUUCAAUACAGCGUGGCAAAUUGGCUGUGGGUAGACUGCC [C8U C13U G27U C37G] reads 0.25.
For the variant GGCAGAGUUCAAUACAGCGGGGCAAAGUGGUCGUGGCUAGACUGCC [C8U C13U U20G C31U U32C], the self-cleavage turned out to be 0.1.
Next, GGUAGAGCUCCACACAGCUUGGCAAAGUGGCUGUGGCUAGACUGCC [C3U A11C G19U]: 0.02; GGCAGAGCGGAACACAGCGUGACAAUGUGGCUGUGGCUAGACUGCC [U9G C10G G22A A26U]: 0.01; GGCAGAUCACAACAUAGCGUGGCAAAGUGGCUGUGGCUAGACUGCC [G7U U9A C15U]: 0.07.
The result for GGCAGAGCUCAACACAGCGUGGCAUAGUGGCUGCGGCUCGUCUGCC [A25U U34C A39C A41U] reads 0.05; that for GGCAGAGCUCAAUACAGUGUGACAAAGUGGAUGUGGCUAGACUGCC [C13U C18U G22A C31A], 0.09; that for GGCAGAGCUCCACACAGCGUGGCAAAGUGGCCGUGGCUAGUCGGCC [A11C U32C A41U U43G], 0.01.
Next, GGCAGAGCUCAACACAGCGCGGCAAAUUGGCUGAGGCUAGACUGCC [U20C G27U U34A]: 0.09; GGCAGAGCUCAACACAGAGUGGCAAAGUGGCUGUGGCUAGACUCCG [C18A G44C C46G]: 0.02; GGCAGAGCUCACCACAGCGUGGCAAAGUUGCUGUGGAUAGACUGCC [A12C G29U C37A]: 0.01.
GGCAGAGCGCAACACAGCAUGGCAAAGUGGCUGUGGCUAUACUGCC [U9G G19A G40U]: the self-cleavage is 0.11.
The result for GGCAGGGCUCAACACAGCGUGGCAAAGUGGCUGAGGAUAGACUGAC [A6G U34A C37A C45A] reads 0.01; that for GGCCGAGCUCAACACAGCGUGGCAAAGUGGCUGUGGCUAGCCGGCC [A4C A41C U43G], 0.02.
The result for GGUAGAGCACAACACAGCGUGGCAAAGUGGCUAUGGCUAGACUGCC [C3U U9A G33A] reads 0.78; that for GCCAGAGCACAACACAGCGUGGCAAAGUGGCUGUGACUCGAUUGCC [G2C U9A G36A A39C C42U], 0.38.
GGCAAAGCUCAGCACAGCGUCGCACAGUGGCUGUGGCUAGACUGCC [G5A A12G G21C A25C]: the self-cleavage worked out at 0.01.
The result for GGCAGAGCUAAACACAGCGCGGCAAAGUGGCUGUUGCUAGACUGCC [C10A U20C G35U] reads 0.02; that for GGCACAGCGCAACACAGCGUGGCAAAAUGGCUGUGGCUAGACUGCC [G5C U9G G27A], 0.03.
As for CUCCGAGCUCAACACAGCGUGGCAAAGUGGCUGUGGCUACACUGCC [G1C G2U A4C G40C], the self-cleavage was 0.02.
The result for GGCAGAGCCCAACACAGUGUGGCAACGUGGCUGUGGCUAGACUGCC [U9C C18U A26C] reads 0.02; that for GGCAGAGCUCAACACAGCGUGACAAAGUGGGCGUGGCUAGACUGCC [G22A C31G U32C], 0.56.
In the case of GGCAGAGCUCAACACAGCGUGGCAAAGUAGCUGUGGCUGGACAGCC [G29A A39G U43A], the self-cleavage is 0.19.
The result for GGCAGAGAUCAACACAGCGUGGCAAAGUGGCUGAGGCUAGACUGCU [C8A U34A C46U] reads 0.2.
Consider GGCAGAGCUCAACACAGCGUGGCAAAGUCGCUGUAUCUACACUGCC [G29C G35A G36U G40C], for which the self-cleavage is 0.05.
With AGCAGAGCUCAACACAGCGUGGCUAAGUGGCUGUCGCUAGACUGAC [G1A A24U G35C C45A], the self-cleavage was 0.02.
The result for GGCAAAGCUCUACAUAGCGUGGCAAAGUGGCUGUGGCUAGACUGCC [G5A A11U C15U] reads 0.02; that for GGCAGAGUUCAACACAGCGUGGCAAAGUAGCUGUGGCCAGACAGCC [C8U G29A U38C U43A], 0.05; that for GGCACAGCUCAACACAGCGUGGAAAAGUGGCUGUGGCUAGACAGCC [G5C C23A U43A], 0.21.
UGCAGAGCAGAAAACAGCGUGGCAAAGUGGCUGUGGCUAGACUGCC [G1U U9A C10G C13A]: the self-cleavage is 0.01.
The result for GACUUAGCUCAACACAGCGUGGCAAGGGGGCUGUUGCUAGACUGCC [G2A A4U G5U A26G U28G G35U] reads 0.25; that for GGCAGAACUGAACACAGCCUGGCAAAGUGGCUGUGGCUAGAUUGCC [G7A C10G G19C C42U], 0; that for GACAGAGCUCAACACAGCGAGCCAAAGUGGCUGUAGCUAGACUGCC [G2A U20A G22C G35A], 0.26.
As to GACAGAGCUCAACAAAGCGUUGCAAAGUGGCUGUGGCUAGACUACC [G2A C15A G21U G44A], the self-cleavage turned out to be 0.03.
The result for GGCAGAGCUCAACACAGCGUUGCAAAGUGGCUUUGGCUAGGCUGCU [G21U G33U A41G C46U] reads 0.35; that for GCCAGAGCUAAACACAGCGUGGCCAAGUGGCUGGGGCUAGACUGCC [G2C C10A A24C U34G], 0.01.
